{"source": "paper PMC4336329", "about": "(PLoS ONE, 2015)", "note": "The whole screen tested about 310,000 compounds, of which about 2,200 (0.71%) showed an effect of 50% or more. Effects have a minus sign here. The list shows a part of the results."}
{"target": "human ether-à-go-go-related gene (hERG) potassium channel (human, UniProt Q12809)", "sequence (Q12809 whole entry, looked up)": "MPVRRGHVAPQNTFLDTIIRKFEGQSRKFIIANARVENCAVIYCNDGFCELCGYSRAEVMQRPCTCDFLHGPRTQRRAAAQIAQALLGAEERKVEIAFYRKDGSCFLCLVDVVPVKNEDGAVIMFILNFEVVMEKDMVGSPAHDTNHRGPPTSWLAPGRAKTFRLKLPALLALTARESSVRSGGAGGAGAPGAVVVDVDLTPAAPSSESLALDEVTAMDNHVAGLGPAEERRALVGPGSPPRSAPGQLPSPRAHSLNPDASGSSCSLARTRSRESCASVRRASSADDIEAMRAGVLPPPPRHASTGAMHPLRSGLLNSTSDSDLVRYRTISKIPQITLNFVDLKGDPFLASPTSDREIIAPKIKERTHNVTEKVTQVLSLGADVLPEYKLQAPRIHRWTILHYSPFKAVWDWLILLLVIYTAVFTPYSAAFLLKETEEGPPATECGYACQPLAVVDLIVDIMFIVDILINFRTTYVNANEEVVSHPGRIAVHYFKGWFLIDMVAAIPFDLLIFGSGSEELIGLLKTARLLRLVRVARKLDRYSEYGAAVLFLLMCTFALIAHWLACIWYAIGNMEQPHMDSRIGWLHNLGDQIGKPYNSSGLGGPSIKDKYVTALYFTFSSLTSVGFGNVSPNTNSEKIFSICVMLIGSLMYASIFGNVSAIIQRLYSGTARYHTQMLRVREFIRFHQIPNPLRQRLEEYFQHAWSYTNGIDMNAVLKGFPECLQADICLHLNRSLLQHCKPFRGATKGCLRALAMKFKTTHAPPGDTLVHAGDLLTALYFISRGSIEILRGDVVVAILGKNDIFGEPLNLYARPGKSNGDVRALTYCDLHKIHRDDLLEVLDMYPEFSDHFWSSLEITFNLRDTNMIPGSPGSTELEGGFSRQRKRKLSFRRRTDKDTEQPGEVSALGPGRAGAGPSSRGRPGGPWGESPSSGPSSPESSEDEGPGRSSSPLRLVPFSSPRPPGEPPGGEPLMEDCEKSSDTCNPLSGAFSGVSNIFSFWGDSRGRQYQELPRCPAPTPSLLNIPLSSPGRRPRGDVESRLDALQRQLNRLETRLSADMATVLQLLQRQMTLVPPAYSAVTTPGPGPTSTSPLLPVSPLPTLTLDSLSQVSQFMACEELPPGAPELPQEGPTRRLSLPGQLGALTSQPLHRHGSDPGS", "assay": "primary screen, population patch clamp on CHO cells stably expressing hERG", "units": {"hERG current change (%, negative = inhibition) at 1uM": "%"}}
{"smiles": "O=C(/C=C/c1ccc([N+](=O)[O-])cc1)c1cccnc1", "hERG current change (%, negative = inhibition) at 1uM": -13.6}
{"smiles": "COCCN(C(=O)c1csnn1)C(C(=O)NC1CCCCC1)c1ccccc1F", "note": "(stereo not shown)", "hERG current change (%, negative = inhibition) at 1uM": 14.3}
{"smiles": "Cc1ccc(-c2nc3ncccc3o2)cc1NC(=O)CC(C)C", "hERG current change (%, negative = inhibition) at 1uM": 3.93}
{"smiles": "COCCC(=O)N1CCC(Oc2ccc(C(=O)N3CCCC(CCCO)C3)cc2)CC1", "note": "(stereo not shown)", "hERG current change (%, negative = inhibition) at 1uM": 14}
{"smiles": "Cc1cccc(C)c1NC(=O)N1CCC(c2nc3ccccc3o2)CC1", "hERG current change (%, negative = inhibition) at 1uM": -1.11}
{"smiles": "CCOC(=O)c1c(C)c(C(=O)N2CCN(c3cccc(Cl)c3)CC2)c(C)n1C", "hERG current change (%, negative = inhibition) at 1uM": 0.397}
{"smiles": "CCOc1ccc(S(=O)(=O)N(CC(=O)NCc2ccncc2)c2ccc(C)cc2)cc1", "hERG current change (%, negative = inhibition) at 1uM": -14.6}
{"smiles": "O=C(Cn1c(=O)oc2ccccc21)Nc1nnc(N2CCCCCC2)s1", "hERG current change (%, negative = inhibition) at 1uM": 1.9}
{"smiles": "CN1CN(C)c2cccc3cccc1c23", "hERG current change (%, negative = inhibition) at 1uM": 12.8}
{"smiles": "CCN(C1CCCCC1)S(=O)(=O)c1ccc(OC)c(C)c1", "hERG current change (%, negative = inhibition) at 1uM": 13.2}
{"smiles": "CCC1CCCCN1C(=O)N[C@@H](CCSC)C(=O)OC", "note": "(stereo partly shown)", "hERG current change (%, negative = inhibition) at 1uM": 2.58}
{"smiles": "CC(/C=N\\Nc1nnc2c(n1)[nH]c1c(C)cccc12)=C\\c1ccco1", "hERG current change (%, negative = inhibition) at 1uM": 10}
{"smiles": "CC(C)N(Cc1cnn(C)c1)Cc1nc(-c2ccc(Cl)cc2)no1", "hERG current change (%, negative = inhibition) at 1uM": 4.78}
{"smiles": "COc1ccc(CN(C)CC(=O)NC(=O)NC2CCCCC2)cc1", "hERG current change (%, negative = inhibition) at 1uM": 3.48}
{"smiles": "O=C(COc1cc2oc(=O)c3c(c2cc1Cl)CCCC3)N1C[C@H]2C[C@@H](C1)c1cccc(=O)n1C2", "hERG current change (%, negative = inhibition) at 1uM": 3.08}
{"smiles": "c1ccc(CSc2nncn2-c2ccccn2)cc1", "hERG current change (%, negative = inhibition) at 1uM": 7.05}
{"smiles": "Cc1nc2ccccn2c1C(=O)NCC(C)C", "hERG current change (%, negative = inhibition) at 1uM": 2.59}
{"smiles": "NNC(=S)NC1CCCCC1", "hERG current change (%, negative = inhibition) at 1uM": 14.6}
{"smiles": "O=C(O)CNC(=S)N(Cc1ccccc1)Cc1cccs1", "hERG current change (%, negative = inhibition) at 1uM": 8.41}
{"smiles": "CN(CC(=O)Nc1ccccc1N1CCOCC1)CC(=O)Nc1ccc(F)c(F)c1F", "hERG current change (%, negative = inhibition) at 1uM": 9.95}
{"smiles": "O=C(CCN1C(=O)/C(=C\\c2cccs2)SC1=S)Nc1nccs1", "hERG current change (%, negative = inhibition) at 1uM": 11.6}
{"smiles": "COc1ccc(CCn2c([S-])nc3ccccc3c2=O)cc1.[Na+]", "hERG current change (%, negative = inhibition) at 1uM": 11.5}
{"smiles": "NNc1nnc(-c2ccccc2)c(-c2ccccc2)n1", "hERG current change (%, negative = inhibition) at 1uM": 0.176}
{"smiles": "CCc1ccc2nc(NC(=O)CCCc3cccs3)sc2c1", "hERG current change (%, negative = inhibition) at 1uM": 19.4}
{"smiles": "COc1cc(C(=O)N2CCC(n3c(C)nc4cc(F)ccc43)CC2)cc(OC)c1OC", "hERG current change (%, negative = inhibition) at 1uM": 1.29}
{"smiles": "CCOC(=O)c1ccoc1CSCc1ccc(C(=O)OC)o1", "hERG current change (%, negative = inhibition) at 1uM": 11.1}
{"smiles": "Cl.O=C(CCN1CCCCC1)c1ccc2c(c1)OCCO2", "hERG current change (%, negative = inhibition) at 1uM": 8.98}
{"smiles": "Cc1cccnc1NC(=O)CCCN1C(=O)c2ccccc2C1=O", "hERG current change (%, negative = inhibition) at 1uM": 8.7}
{"smiles": "CC(C)OC(=O)NS(=O)(=O)c1cccc([N+](=O)[O-])c1", "hERG current change (%, negative = inhibition) at 1uM": 12.3}
{"smiles": "COc1ccc(CNc2nc(SCc3cc(=O)n4cc(Cl)ccc4n3)nc3ccccc23)cc1", "hERG current change (%, negative = inhibition) at 1uM": -4.12}
{"smiles": "Brc1ccc(-c2nnc(-c3ccccc3)c(N3CCSCC3)n2)cc1", "hERG current change (%, negative = inhibition) at 1uM": 14.6}
{"smiles": "CC(C)(C)c1ccc(OCCC(=O)Nc2cccc(S(=O)(=O)N3CCCCC3)c2)cc1", "hERG current change (%, negative = inhibition) at 1uM": 15.3}
{"smiles": "CSc1ccc(S(=O)(=O)N2CCC(C(=O)Nc3ccc(C(N)=O)cc3)CC2)cc1", "hERG current change (%, negative = inhibition) at 1uM": 15.4}
{"smiles": "COc1ccc(-n2nnnc2-c2cn(C)nc2C(F)(F)F)cc1", "hERG current change (%, negative = inhibition) at 1uM": 7.4}
{"smiles": "O=C(NCc1nc2ccccc2[nH]1)C1=C[C@H](c2coc3ccccc3c2=O)C[C@H](OCCCCO)O1", "hERG current change (%, negative = inhibition) at 1uM": -9.51}
{"smiles": "CN1CCC(=C(c2ccc(Cl)cc2)c2ccccn2)CC1.O=C([O-])/C=C\\C(=O)[O-]", "hERG current change (%, negative = inhibition) at 1uM": -0.919}
{"smiles": "Cn1c(=O)c(Oc2cc(Cl)cc(Cl)c2)nc2ccccc21", "hERG current change (%, negative = inhibition) at 1uM": 2.74}
{"smiles": "Cc1ccc(Nc2cc(C)nc3nc(C)nn23)c(C)c1", "hERG current change (%, negative = inhibition) at 1uM": 12.3}
{"smiles": "CC(C)[C@H](NC(=O)c1ccccc1)C(=O)Nc1cccc(S(=O)(=O)N2CCOCC2)c1", "hERG current change (%, negative = inhibition) at 1uM": 7.63}
{"smiles": "CCOc1ccccc1N(CC(=O)NCCSc1ccccn1)S(=O)(=O)c1ccccc1", "hERG current change (%, negative = inhibition) at 1uM": 9.37}
{"smiles": "CCOC(=O)C1CCCN(c2c(NCCc3ccc(Cl)cc3)c(=O)c2=O)C1", "note": "(stereo not shown)", "hERG current change (%, negative = inhibition) at 1uM": 7.74}
{"smiles": "Cc1ccc(C2=NN(C3=NN=C(N)Cc4ncnn43)C(O)(C(F)(F)F)C2)cc1", "note": "(stereo not shown)", "hERG current change (%, negative = inhibition) at 1uM": 16.6}
{"smiles": "CCOC(=O)C(=Nc1ccccc1)NO", "hERG current change (%, negative = inhibition) at 1uM": 13}
{"smiles": "Cc1ccccc1CS(=O)(=O)c1nnc([C@H](Cc2ccccc2)NC(=O)OC(C)(C)C)o1", "hERG current change (%, negative = inhibition) at 1uM": 3.92}
{"smiles": "CNC(=O)c1ccccc1S(=O)(=O)c1ccccc1C#N", "hERG current change (%, negative = inhibition) at 1uM": 9.29}
{"smiles": "COc1ccc(/C=C/C(=O)NC2CCCCCC2)cc1S(=O)(=O)N1CCOCC1", "hERG current change (%, negative = inhibition) at 1uM": 11.3}
